# The other results are listed elsewhere or left out. Values were computed here from the reads of four pooled replicates and scatter widely.
# Biological target: T1, Pho4 (S. cerevisiae) (UniProt P07270)
# T1 sequence: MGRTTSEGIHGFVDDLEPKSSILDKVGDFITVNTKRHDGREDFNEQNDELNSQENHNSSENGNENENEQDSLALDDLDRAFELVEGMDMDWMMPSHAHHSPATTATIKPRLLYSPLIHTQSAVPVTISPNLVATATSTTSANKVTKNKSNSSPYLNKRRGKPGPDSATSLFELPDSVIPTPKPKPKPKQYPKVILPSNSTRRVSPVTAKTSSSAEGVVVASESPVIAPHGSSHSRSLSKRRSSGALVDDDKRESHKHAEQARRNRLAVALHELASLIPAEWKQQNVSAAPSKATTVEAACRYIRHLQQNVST
# Assay: relative binding free energy (BET-seq); higher = weaker binding
# Conditions: reference: library average
row,Sequence,relative binding free energy [kcal/mol]
1,GGTTGCACGTGAGGGA,0.28
2,GAATACACGTGGGAGG,-0.05
3,GTTTGCACGTGGCACG,-0.02
4,CGTAGCACGTGTGGAG,-0.01
5,TGTGGCACGTGAGGAG,0.08
6,GCAGGCACGTGGCTTG,-0.09
7,TTTAGCACGTGTTGGA,-0.05
8,ATGATCACGTGGGCGA,0.08
9,GGTTGCACGTGAGTTA,0.32
10,GTCATCACGTGACGGT,0.4
11,CGGCACACGTGTTGGT,-0.03
12,TAACTCACGTGGGGGT,0.04
13,AGTAACACGTGGCGTT,-0.19
14,GGGTTCACGTGGGTTA,0.17
15,GTCGGCACGTGGGAAT,-0.13
16,GAGGGCACGTGGTGTC,-0.09
17,GTGGTCACGTGGGCTG,0.01
18,AGCGACACGTGTTTTT,0.21
19,GGATCCACGTGGTGTT,-0.2
20,GTTTTCACGTGTTCTG,0.33
21,ATGTACACGTGGGGTT,-0.1

row,Sequence,relative binding free energy [kcal/mol]
1,GTAAACACGTGAGGGA,0.3
2,TAATGCACGTGAGGGG,0.13
3,GCTGGCACGTGAAGAG,0.14
4,ATGCACACGTGTGGGT,0.15
5,GTGTGCACGTGGATCT,-0.05
6,GAAGGCACGTGAATGG,0.08
7,TTAAGCACGTGGGATT,-0.17
8,CTGGTCACGTGAAGGT,0.3
9,TGGTTCACGTGGTTCT,0.17
10,GGTTGCACGTGCGAAG,0.03
11,AGTTACACGTGAATAG,0.6
12,ATGAACACGTGGCTGG,-0.06
13,TTTTGCACGTGTCGGA,0.2
14,GTGGTCACGTGCGATG,0.05
15,AATTTCACGTGATGAT,0.29
16,GGGCGCACGTGGGTTG,-0.33
17,TTAGTCACGTGTAGAC,0.17
18,CGGCGCACGTGGGCGG,-0.28
19,TACAACACGTGGTGGT,-0.03
20,GTTGGCACGTGTACAT,-0.02
21,ACGGTCACGTGATGGA,0.14

row,Sequence,relative binding free energy [kcal/mol]
1,AAGTGCACGTGCGTTT,-0.12
2,TCGGGCACGTGTTGCT,-0.05
3,CGGGCCACGTGAGTGG,0.03
4,GGATGCACGTGTGATG,-0.11
5,ATTTACACGTGTAGAG,0.05
6,AGATGCACGTGAGCAG,0.24
7,TCGGGCACGTGGGCAT,-0.3
8,CCAGTCACGTGGTTGG,0.06
9,GTGTTCACGTGTAGCA,0.39
10,AGTTCCACGTGTAGGG,0.05
11,GTGGACACGTGTGTGA,0.1
12,TTTGACACGTGCTGGA,0.11
13,TGGCCCACGTGGGAGT,-0.21
14,CGGGACACGTGGGAAA,0.12
15,CGTTACACGTGTTACG,0.24
16,TATGCCACGTGAGATT,0.23
17,GGGGACACGTGGTGTG,-0.01
18,TTAAGCACGTGAAGAT,0.24
19,GTGTTCACGTGTTAGT,0.38
20,GCGATCACGTGTTGTT,0.22
21,TTTGGCACGTGGCTAT,-0.22
